These results are taken from paper PMC5021521, “Coordinated recruitment of Spir actin nucleators and myosin V motors to Rab11 vesicle membranes” (eLife, 2016).

Protein sequences, listed by entry. Tags and fused reporters are not part of them. Lines headed by an entry give the natural chain unless they say otherwise; changes in a name come on top. Chains listed by the source or under a name are the forms on record and can include a tag or linker. Residues count along the entry.
UniProt Q08AE8, residues 2-756: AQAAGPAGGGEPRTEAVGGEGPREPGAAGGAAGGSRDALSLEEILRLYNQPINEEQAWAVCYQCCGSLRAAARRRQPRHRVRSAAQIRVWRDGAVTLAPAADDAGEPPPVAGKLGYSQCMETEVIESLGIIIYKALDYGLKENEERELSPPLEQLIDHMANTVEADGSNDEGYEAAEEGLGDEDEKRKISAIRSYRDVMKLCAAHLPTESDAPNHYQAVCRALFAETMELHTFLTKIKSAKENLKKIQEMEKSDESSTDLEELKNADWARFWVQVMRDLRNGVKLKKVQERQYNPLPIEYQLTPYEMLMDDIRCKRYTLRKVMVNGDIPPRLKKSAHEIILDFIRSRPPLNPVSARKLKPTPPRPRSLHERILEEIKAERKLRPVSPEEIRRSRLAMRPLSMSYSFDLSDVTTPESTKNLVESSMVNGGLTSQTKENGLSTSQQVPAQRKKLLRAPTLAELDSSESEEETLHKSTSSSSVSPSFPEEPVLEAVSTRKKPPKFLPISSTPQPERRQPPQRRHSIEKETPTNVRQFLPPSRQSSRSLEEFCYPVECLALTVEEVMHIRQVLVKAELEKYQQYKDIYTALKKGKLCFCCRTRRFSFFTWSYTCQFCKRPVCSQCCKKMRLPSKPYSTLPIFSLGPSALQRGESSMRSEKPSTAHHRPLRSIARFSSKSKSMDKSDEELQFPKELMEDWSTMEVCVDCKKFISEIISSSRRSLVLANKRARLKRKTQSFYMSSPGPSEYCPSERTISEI
UniProt Q9Y4I1, residues 1461-1853: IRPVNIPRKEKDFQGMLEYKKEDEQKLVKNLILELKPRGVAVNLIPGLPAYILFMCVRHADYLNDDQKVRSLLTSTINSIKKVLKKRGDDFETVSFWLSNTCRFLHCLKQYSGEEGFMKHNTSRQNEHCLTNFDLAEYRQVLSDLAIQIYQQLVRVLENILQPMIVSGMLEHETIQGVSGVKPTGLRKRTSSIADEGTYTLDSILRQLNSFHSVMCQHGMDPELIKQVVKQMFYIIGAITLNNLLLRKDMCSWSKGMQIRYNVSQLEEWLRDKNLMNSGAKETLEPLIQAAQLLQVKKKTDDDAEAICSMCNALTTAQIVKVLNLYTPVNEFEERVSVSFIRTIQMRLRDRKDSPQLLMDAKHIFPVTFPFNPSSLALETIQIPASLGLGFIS
Rab11a (crystallised with MyoVa-GTD) (P62491, residues 1-177): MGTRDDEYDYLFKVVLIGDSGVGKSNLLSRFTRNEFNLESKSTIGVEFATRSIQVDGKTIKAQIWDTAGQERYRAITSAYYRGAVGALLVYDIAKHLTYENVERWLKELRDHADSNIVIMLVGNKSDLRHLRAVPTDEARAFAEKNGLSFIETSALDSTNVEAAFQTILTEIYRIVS
His6-Rab11a-Q70L-1-173 (P62491, form named): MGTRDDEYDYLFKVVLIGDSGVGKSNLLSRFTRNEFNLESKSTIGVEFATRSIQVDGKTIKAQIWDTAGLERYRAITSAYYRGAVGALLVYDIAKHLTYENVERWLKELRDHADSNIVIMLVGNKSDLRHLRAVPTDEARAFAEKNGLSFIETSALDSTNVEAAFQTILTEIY
UniProt Q9ULV0, residues 1467-1848: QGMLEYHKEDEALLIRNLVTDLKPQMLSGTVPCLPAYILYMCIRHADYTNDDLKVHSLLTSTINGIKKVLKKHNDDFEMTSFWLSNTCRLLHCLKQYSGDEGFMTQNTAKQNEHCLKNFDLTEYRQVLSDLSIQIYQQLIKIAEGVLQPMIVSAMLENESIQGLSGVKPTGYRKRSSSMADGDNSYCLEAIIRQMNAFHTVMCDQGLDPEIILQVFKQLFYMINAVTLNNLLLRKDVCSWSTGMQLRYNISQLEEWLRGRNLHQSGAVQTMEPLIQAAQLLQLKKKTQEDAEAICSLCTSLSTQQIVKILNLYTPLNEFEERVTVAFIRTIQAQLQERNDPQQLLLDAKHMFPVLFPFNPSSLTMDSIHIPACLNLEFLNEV

Results are given in words; binding and its absence hold for the method and conditions named. For part of these data: In cells and extracts the contact can be indirect. Some results given as binding are weak or reduced against the parent protein; the word gives no strength. For part of these data: Tags and fused reporters may be left off the sequences shown.

The target of assay [1] is Myc-Spir-1 full-length (human) (UniProt Q08AE8). In words: co-IP; HEK293 cells co-transfected with Myc-tagged Spir and GFP-tagged MyoV fragments; lysates precipitated with anti-c-Myc (9E10) and Protein G-Agarose; 25 mM Tris-HCl pH 7.4, 150 mM NaCl, 5 mM MgCl2, 10% glycerol, 0.1% NP-40; immunoblot.
Assay [2] concerns the target T1, Myc-Spir-2 full-length (human) (UniProt Q8WWL2).
T1 sequence: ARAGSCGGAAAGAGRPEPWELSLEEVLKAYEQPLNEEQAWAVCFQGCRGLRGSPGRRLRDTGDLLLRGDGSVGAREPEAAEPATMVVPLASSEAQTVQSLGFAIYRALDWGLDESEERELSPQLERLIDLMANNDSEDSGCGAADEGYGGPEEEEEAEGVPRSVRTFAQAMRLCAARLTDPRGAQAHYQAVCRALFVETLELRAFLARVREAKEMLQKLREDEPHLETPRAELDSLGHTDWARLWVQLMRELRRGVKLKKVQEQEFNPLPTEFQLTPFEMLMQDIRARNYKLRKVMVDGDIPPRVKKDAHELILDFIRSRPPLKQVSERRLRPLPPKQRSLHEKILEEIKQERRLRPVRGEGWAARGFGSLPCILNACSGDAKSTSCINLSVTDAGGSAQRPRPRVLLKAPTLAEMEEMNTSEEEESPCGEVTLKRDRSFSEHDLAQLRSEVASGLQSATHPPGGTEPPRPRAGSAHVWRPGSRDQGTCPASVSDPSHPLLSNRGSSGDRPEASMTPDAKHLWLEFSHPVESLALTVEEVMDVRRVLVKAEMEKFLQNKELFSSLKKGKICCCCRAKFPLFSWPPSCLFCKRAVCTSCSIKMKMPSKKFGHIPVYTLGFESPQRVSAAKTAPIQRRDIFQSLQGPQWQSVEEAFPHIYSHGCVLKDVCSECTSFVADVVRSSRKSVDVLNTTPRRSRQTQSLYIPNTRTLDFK
Described as above.

The target of another assay is T2, Myc-Spir-2-2-410 (human) (UniProt Q8WWL2).
T2 sequence: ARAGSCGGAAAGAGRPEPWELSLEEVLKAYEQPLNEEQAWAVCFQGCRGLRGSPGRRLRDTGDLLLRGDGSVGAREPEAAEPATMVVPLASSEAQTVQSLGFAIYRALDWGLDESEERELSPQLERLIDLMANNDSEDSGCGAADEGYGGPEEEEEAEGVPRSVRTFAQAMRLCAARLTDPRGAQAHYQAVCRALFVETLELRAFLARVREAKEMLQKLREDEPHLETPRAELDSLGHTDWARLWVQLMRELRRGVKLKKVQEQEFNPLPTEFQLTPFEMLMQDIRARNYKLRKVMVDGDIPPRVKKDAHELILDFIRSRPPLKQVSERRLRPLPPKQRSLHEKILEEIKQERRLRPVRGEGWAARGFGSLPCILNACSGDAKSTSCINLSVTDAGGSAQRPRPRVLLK
The description is as above.

Another assay addresses T3, Myc-Spir-2-2-423 (human) (UniProt Q8WWL2).
T3 sequence: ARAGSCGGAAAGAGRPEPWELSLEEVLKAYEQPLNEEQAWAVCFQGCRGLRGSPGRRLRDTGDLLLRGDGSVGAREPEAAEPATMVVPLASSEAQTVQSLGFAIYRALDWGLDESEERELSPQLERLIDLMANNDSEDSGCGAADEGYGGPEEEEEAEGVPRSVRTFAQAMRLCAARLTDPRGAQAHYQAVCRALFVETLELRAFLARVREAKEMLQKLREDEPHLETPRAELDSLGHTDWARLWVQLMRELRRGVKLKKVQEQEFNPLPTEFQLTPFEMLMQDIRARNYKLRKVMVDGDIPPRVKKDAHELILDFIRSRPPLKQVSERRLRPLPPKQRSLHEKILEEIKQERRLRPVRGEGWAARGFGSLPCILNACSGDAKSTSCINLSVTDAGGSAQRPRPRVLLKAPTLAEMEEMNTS
The assay is described as above.

Assay [3] has as its target T4, Myc-Spir-2-398-714 (human) (UniProt Q8WWL2).
T4 sequence: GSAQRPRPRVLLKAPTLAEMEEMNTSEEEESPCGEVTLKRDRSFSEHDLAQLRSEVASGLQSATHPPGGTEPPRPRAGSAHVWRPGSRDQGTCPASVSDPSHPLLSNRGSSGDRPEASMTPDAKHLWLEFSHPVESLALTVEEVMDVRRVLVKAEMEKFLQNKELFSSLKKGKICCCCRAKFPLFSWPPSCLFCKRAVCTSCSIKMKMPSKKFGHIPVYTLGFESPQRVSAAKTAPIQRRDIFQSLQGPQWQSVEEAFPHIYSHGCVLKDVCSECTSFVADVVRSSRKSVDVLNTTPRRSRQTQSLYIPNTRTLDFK
The description is as above.

Assay [4] concerns the target T5, Myc-Spir-2-411-714 (human) (UniProt Q8WWL2).
T5 sequence: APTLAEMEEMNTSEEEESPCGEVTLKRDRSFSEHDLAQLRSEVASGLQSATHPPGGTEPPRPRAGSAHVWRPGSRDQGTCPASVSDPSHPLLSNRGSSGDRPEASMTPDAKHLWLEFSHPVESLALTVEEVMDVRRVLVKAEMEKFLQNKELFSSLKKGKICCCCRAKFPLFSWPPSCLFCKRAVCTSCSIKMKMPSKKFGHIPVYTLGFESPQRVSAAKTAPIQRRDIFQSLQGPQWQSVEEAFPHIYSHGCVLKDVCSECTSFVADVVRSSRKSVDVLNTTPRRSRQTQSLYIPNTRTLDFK
The description is as above.

In assay [5] the target is T6, Myc-Spir-2-SB-FYVE (human) (UniProt Q8WWL2).
T6 sequence: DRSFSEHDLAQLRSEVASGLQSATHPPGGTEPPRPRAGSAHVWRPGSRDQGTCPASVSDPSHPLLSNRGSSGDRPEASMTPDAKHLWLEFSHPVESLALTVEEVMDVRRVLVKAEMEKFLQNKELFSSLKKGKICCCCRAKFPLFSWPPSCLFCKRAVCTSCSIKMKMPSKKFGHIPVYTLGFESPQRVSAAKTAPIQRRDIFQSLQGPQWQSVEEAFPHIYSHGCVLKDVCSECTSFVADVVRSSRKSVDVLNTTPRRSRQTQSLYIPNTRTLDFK
The assay is described as above.

The target in assay [6] is MyoVa-GTD (human, aa 1461-1853) (human) (UniProt Q9Y4I1). The experiment in a line: SEC; analytical gel filtration, Superdex 200 10/30 Increase; 50 mM Tris pH 8.0, 150 mM NaCl, 2 mM MgCl2, 2 mM TCEP; His6-Rab11a-1-173-Q70L 6 mg/ml, MyoVa-GTD 5 mg/ml, His6-mCherry-Spir-2-linker 6 mg/ml, alone, pairwise or all three; fractions on SDS-PAGE; both purified.
Assay [7] has as its target T7, GST-Spir-2-GTBM-SB-FYVE (human) (UniProt Q8WWL2).
T7 sequence: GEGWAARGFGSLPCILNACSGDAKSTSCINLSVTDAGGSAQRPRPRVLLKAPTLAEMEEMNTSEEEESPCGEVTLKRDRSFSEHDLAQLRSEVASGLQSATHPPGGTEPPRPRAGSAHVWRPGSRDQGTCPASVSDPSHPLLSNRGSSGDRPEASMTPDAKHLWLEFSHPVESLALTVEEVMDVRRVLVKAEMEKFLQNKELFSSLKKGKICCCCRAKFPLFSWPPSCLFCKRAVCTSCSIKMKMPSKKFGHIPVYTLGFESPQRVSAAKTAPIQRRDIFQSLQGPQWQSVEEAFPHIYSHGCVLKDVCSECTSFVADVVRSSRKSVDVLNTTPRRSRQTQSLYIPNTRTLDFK
In words: pull-down; 65 ug GST-Spir-2-GTBM-SB-FYVE on beads, 35 ug Rab11a-Q70L with or without 40 ug MyoVa-GTD, 2 hr; immunoblot with anti-myosin Va and anti-Rab11; both purified.

Assay [8] concerns the target T8, Fluorescein-Spir-2-GTBM peptide (human).
T8 sequence (peptide, 5-FAM-Ahx on the N-terminus (fluorescein)): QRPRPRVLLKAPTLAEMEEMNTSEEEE
In words: fluorescence polarisation; fluorescence anisotropy; 1 uM fluorescein-Spir-2-401-427 titrated with MyoVa-GTD or MyoVb-GTD (50 nM-5 uM); 25°C; 100 mM Tris-HCl pH 8.0, 150 mM NaCl, 2 mM MgCl2, 2 mM TCEP, 5% glycerol; both purified.

In assay [9] the target is Rab11-wt(GDP), His6-tagged (human) (UniProt P62491). In words: SPR; Rab11a-Q70L(GTP) or Rab11-wt(GDP) captured through His6-tag on NTA sensorchip (200-250 RU), Biacore 2000; MyoVa-GTD or MyoVb-GTD 10 nM-5 uM injected; 25°C; 50 mM Hepes pH 7.5, 100 mM NaCl, 2 mM MgCl2, 1 mM TCEP; steady state; both purified.
Assay [10] has as its target MyoVa-GTD (human, aa 1461-1853) (human) (UniProt Q9Y4I1). The experiment in a line: crystal structure; hanging drops, 17°C; MyoVa-GTD with Rab11a 1:1 and 2 mM beryllium fluoride; MyoVa-GTD with Spir-2-401-427 peptide 1:3; both purified.
The target is the same in assay [11]. The assay is described as above. The source holds these as a separate data set.

As to “GFP-MyoVb-GTD (from UniProt Q9ULV0 1467-1848) (domain or fragment)”, the binding result in assay [1] was “binds”; in assay [2], “binds”; in the assay with Myc-Spir-2-2-410 (human), “no binding”; with Myc-Spir-2-2-423 (human), “binds”; in assay [3], “binds”; in [4] it was “no binding”. Besides, the binding result in assay [5] is recorded as “no binding”.
Regarding “His6-Rab11a-Q70L-1-173 (from UniProt P62491 1-173) (domain or fragment)”, the binding result in [6] is “binds”.
Regarding “MyoVa-GTD (human, aa 1461-1853) (from UniProt Q9Y4I1 1461-1853) (domain or fragment)”, the binding entry was “binds” in assay [7], “binds” in [8], “binds” in assay [9] and “no binding (tested: 5 mg/ml)” in [6].
As to “Rab11a (crystallised with MyoVa-GTD) (from UniProt P62491 1-177) (domain or fragment)”, in assay [10], the binding entry is on record as “binds”.

B1: His6-mCherry-Spir-2-linker (domain or fragment, human, UniProt Q8WWL2 361-519, looked up)
chain: GEGWAARGFGSLPCILNACSGDAKSTSCINLSVTDAGGSAQRPRPRVLLKAPTLAEMEEMNTSEEEESPCGEVTLKRDRSFSEHDLAQLRSEVASGLQSATHPPGGTEPPRPRAGSAHVWRPGSRDQGTCPASVSDPSHPLLSNRGSSGDRPEASMTPD
notes: Spir-2 central linker region, human, aa 361-519; also called His-mCherry-Spir2-linker; His6-mCherry-hs-Spir2-linker; source: E. coli (Rosetta or Rosetta (DE3) pLysS; BL21(DE3)), purified (Ni-NTA, Superdex 200); not shown: His6, N-terminal, kept; mCherry, N-terminal, kept
For the molecule B1, the binding result in [6] is recorded as “binds”.
In the case of QRPRPRVLLKAPTLAEMEEMNTSEEEE [Spir-2-GTBM peptide (Spir-2-401-427)], the binding entry in [11] is “binds”.
